# According to the supplement of paper PMC4166925:
# ± gives the standard deviation of the averaged measurements. The full ranking holds about 33,000 sequences; the median of “E-score (dimensionless, -0.5 to 0.5)” is about -0.046, and the highest 2% start at about 0.36. This is one part of the list.
# System: T1, SpTbr T-box DNA-binding domain (GST fusion)
# T1 sequence: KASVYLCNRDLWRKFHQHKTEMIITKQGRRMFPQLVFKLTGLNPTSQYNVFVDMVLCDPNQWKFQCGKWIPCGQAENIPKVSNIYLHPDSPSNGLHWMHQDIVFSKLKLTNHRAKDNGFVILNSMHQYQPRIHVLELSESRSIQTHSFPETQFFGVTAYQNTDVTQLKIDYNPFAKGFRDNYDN
# Test: PBM E-score of 8-mer (E-score (dimensionless, -0.5 to 0.5)); Tbr is Tbrain of the sea star Patiria miniata (Pm) or the sea urchin Strongylocentrotus purpuratus (Sp); higher = stronger binding preference; most listed sequences are background and not binding sites
# Conditions: the construct has about 5 more residues each side
# In short: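 Primer extension turned Universal Agilent oligonucleotide arrays double-stranded. They were incubated with 200 nM protein in PBS (pH 7.5); the protein was a GST-fused Tbr T-box DNA-binding domain expressed in BL21 E. coli at 20 °C and purified on glutathione. Every ungapped 8-mer was scored from the scanned, quantified probe intensities, and the Universal PBM Analysis Suite gave each an enrichment E-score averaged over duplicate arrays.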
row,Sequence,PBM E-score of 8-mer
1,AAAACTTT,0.0646 ± 0.092
2,AACGGCCA,0.0429 ± 0.043
3,CACTGGTC,-0.163 ± 0.012
4,AAATGACC,-0.00341 ± 0.037
5,CGGTTACC,-0.126 ± 0.0074
6,GCGTCAAA,0.31 ± 0.029
7,ACACGCGT,0.236 ± 0.0033
8,AGTTGCTC,-0.00079 ± 0.059
9,CGAAACGC,-0.00119 ± 0.03
10,AGTAGCGG,-0.0382 ± 0.078
11,GAATGCCA,-0.0123 ± 0.0072
12,GGCCTAAA,-0.138 ± 0.069
13,ACAGACAG,0.00634 ± 0.093
14,ACCAGTGG,-0.147 ± 0.026
15,ACTGTCGA,0.202 ± 0.031
16,GACGTCGA,-0.113 ± 0.019
17,ATCCTTTC,-0.252 ± 0.012
18,GGCGGGGA,-0.0765 ± 0.031
19,CCGATCTA,-0.191 ± 0.032
20,ACAGTGGT,0.0138 ± 0.052
21,AACAGTGT,0.217 ± 0.024
22,CGCGACAA,0.309 ± 0.0049
23,AGCCACAT,-0.123 ± 0.024
24,CCCATTTA,-0.00609 ± 0.031
25,CACAAGCC,-0.00774 ± 0.031

row,Sequence,PBM E-score of 8-mer
1,CGACGATC,0.0321 ± 0.031
2,ACGTCACT,0.183 ± 0.04
3,CTCACTTC,0.276 ± 0.015
4,GATTTGGC,0.199 ± 0.033
5,AGCATAGA,-0.0143 ± 0.0077
6,ATGCCCGA,-0.0352 ± 0.056
7,TAATATTA,-0.13 ± 0.033
8,CCTCTCGC,0.235 ± 0.031
9,ATCGCAAT,0.141 ± 0.0092
10,CCACATAA,-0.114 ± 0.071
11,CGGCGCAA,-0.107 ± 0.068
12,CGTCAAGA,0.157 ± 0.12
13,TAGACCTA,-0.237 ± 0.024
14,CTTCTTTC,-0.199 ± 0.037
15,GCGCGAGA,0.3663 ± 0.0029
16,GCTTAAGC,-0.305 ± 0.013
17,CTCGGATA,-0.169 ± 0.043
18,ATGGGGTC,-0.16 ± 0.023
19,TGAGGTAA,-0.193 ± 0.013
20,CGTAAACC,-0.0335 ± 0.11
21,CGAGGGCC,-0.127 ± 0.057
22,AAAGGAGG,-0.154 ± 0.071
23,CAATAATC,-0.0725 ± 0.12
24,ATGATCAT,-0.147 ± 0.0035
25,GATACACC,0.157 ± 0.088

row,Sequence,PBM E-score of 8-mer
1,AGGCCGGA,-0.223 ± 0.018
2,ACGAACGT,0.0948 ± 0.012
3,CATAGACG,-0.00924 ± 0.026
4,GAAGTCTC,0.0123 ± 0.037
5,CGGAAACA,-0.0108 ± 0.032
6,ATCCCGAG,-0.121 ± 0.061
7,ATTAGGCC,-0.273 ± 0.07
8,GAGGAATA,-0.238 ± 0.027
9,CATGTTAA,0.0432 ± 0.11
10,GCCGCGAC,0.143 ± 0.035
11,AATCATCG,0.0375 ± 0.043
12,GGGCGACA,0.277 ± 0.0043
13,TAGAATGA,0.0442 ± 0.074
14,ACCAGTCC,-0.1 ± 0.11
15,ACTTTTTG,0.227 ± 0.033
16,GTACTACA,-0.175 ± 0.086
17,AGCTACTA,-0.0235 ± 0.013
18,GACTTATC,-0.0784 ± 0.11
19,CACTTGAC,0.282 ± 0.061
20,CGGTCCAC,-0.0351 ± 0.019
21,AAGAGCCG,-0.148 ± 0.051
22,GGGCACGA,-0.118 ± 0.0048
23,GCCCCGGC,-0.339 ± 0.04
24,AGAGACGC,-0.15 ± 0.037
25,CGGTTGAA,-0.126 ± 0.045

row,Sequence,PBM E-score of 8-mer
1,GCTATGCA,-0.166 ± 0.02
2,ATCGGAGG,-0.192 ± 0.081
3,ACATGCGG,-0.0496 ± 0.0084
4,AGTGGAGG,0.0988 ± 0.056
5,GTACAGGA,-0.256 ± 0.0053
6,ACGCCGTG,0.26 ± 0.004
7,ACTGTAAT,-0.064 ± 0.02
8,ATTCTCAC,0.415 ± 0.015
9,CTAGAGCA,-0.213 ± 0.059
10,ATCTACTC,-0.281 ± 0.021
11,AGATATGG,-0.243 ± 0.0085
12,AAAGCCAA,-0.221 ± 0.037
13,CCTGTAAA,0.0537 ± 0.052
14,CCCTGAAA,-0.103 ± 0.074
15,GATCGGGC,-0.157 ± 0.062
16,ACTTTTAA,-0.178 ± 0.0036
17,CCACGAGC,-0.0192 ± 0.085
18,AGTTTCCC,-0.152 ± 0.024
19,CGCGAAGA,0.371 ± 0.01
20,ACTGCGGA,-0.25 ± 0.021
21,ACCGCGCT,0.0777 ± 0.094
22,AGGAACGA,-0.0882 ± 0.076
23,CCGACTGC,-0.0987 ± 0.014
24,ACTCAGCT,-0.00575 ± 0.016
25,ATCTGCAA,-0.127 ± 0.042

row,Sequence,PBM E-score of 8-mer
1,ACTCTCGC,0.203 ± 0.033
2,CAGACTTC,-0.188 ± 0.011
3,GCAGACAA,0.0601 ± 0.0044
4,AGCACGCC,0.0302 ± 0.026
5,AGGAGGTA,-0.0388 ± 0.051
6,AGACCCAC,0.0705 ± 0.1
7,ATTTTAGA,-0.0365 ± 0.11
8,GGTCCAAA,-0.137 ± 0.0084
9,ATGGGTTA,-0.0808 ± 0.079
10,GGCCCGAA,-0.217 ± 0.058
11,AGAGAGAT,-0.179 ± 0.024
12,CCGCTTCA,-0.00373 ± 0.014
13,CGTACCAG,-0.161 ± 0.064
14,AGCCGTCA,0.121 ± 0.0059
15,TTGGACAA,0.00904 ± 0.046
16,ATGTACAT,-0.185 ± 0.064
17,AACCATGG,-0.0415 ± 0.0021
18,AGCCACGG,-0.0343 ± 0.069
19,AGATCGTA,0.0572 ± 0.031
20,ATGGTAAT,-0.147 ± 0.0066
21,ACGCACGC,0.24 ± 0.072
22,CGTAGCCA,-0.196 ± 0.073
23,CAGTGCAG,-0.179 ± 0.024
24,CTAGGTGA,0.356 ± 0.026
25,GCGCTTGA,0.0279 ± 0.045

row,Sequence,PBM E-score of 8-mer
1,ACTGAAGG,-0.113 ± 0.05
2,AAACCTGA,-0.00426 ± 0.071
3,ATATTACA,0.0587 ± 0.075
4,AATATAAA,-0.125 ± 0.022
5,AGTCTAGC,-0.116 ± 0.018
6,GACATCCC,0.0314 ± 0.011
7,CTTGGTAA,0.00973 ± 0.026
8,CGGTTGGC,0.0889 ± 0.011
9,GGCAGAAC,-0.0963 ± 0.0052
10,GAATCGTC,-0.0873 ± 0.068
11,CTCAACAA,-0.000735 ± 0.08
12,ATTCGAGG,-0.0354 ± 0.033
13,ATCTTTGG,-0.0893 ± 0.0079
14,GATCCTAA,-0.0791 ± 0.038
15,CCAGAGGG,-0.31 ± 0.0048
16,ACAACTAC,0.111 ± 0.061
17,GTAGTAAA,-0.0759 ± 0.019
18,GTCTTCAC,0.28 ± 0.0046
19,GGGGCCTA,-0.185 ± 0.063
20,CTATCAAG,-0.119 ± 0.021
21,GTCTTCCA,-0.0575 ± 0.036
22,ACATAATG,0.0621 ± 0.025
23,ATAATTAC,-0.0638 ± 0.075
24,ACGATAAT,-0.0718 ± 0.0031
25,ATCCGCAG,-0.241 ± 0.013

row,Sequence,PBM E-score of 8-mer
1,CGCTATAG,-0.0467 ± 0.031
2,GCACGTAA,-0.0174 ± 0.035
3,AAGGACAG,-0.154 ± 0.025
4,GTTAGGTA,-0.00017 ± 0.011
5,ATATCGTA,-0.119 ± 0.017
6,CTGCGAAC,0.365 ± 0.0088
7,AGATATAC,-0.184 ± 0.094
8,AATGGAGG,0.0705 ± 0.0038
9,ACAGGAGG,-0.116 ± 0.042
10,GCGACGGA,0.103 ± 0.06
11,ATAGAGCC,-0.212 ± 0.02
12,GGCAGGTA,-0.105 ± 0.077
13,CCAAGGTA,-0.0843 ± 0.0088
14,AAAGACTC,-0.0936 ± 0.0099
15,ATATTAGA,-0.165 ± 0.0021
16,GTGTTAAA,0.395 ± 0.026
17,CCATGCCG,0.0151 ± 0.00083
18,ACCGGCTA,-0.122 ± 0.031
19,GCTTGACC,-0.274 ± 0.028
20,GGAAGCGA,0.00717 ± 0.012
21,AAGGATAA,0.0197 ± 0.021
22,AAAGGAGA,-0.0355 ± 0.033
